Reference: PMC9911399, “Two distinct binding modes provide the RNA-binding protein RbFox with extraordinary sequence specificity”
Where a chain is given by its changes, count along the chain named. This is one part of the list.

T1: RBFOX1 RRM RbFoxmut (Fox-RRM*) (Homo sapiens, UniProt Q9NWB1 109-208, R118D;E147R;N151S;E152T)
T1 sequence: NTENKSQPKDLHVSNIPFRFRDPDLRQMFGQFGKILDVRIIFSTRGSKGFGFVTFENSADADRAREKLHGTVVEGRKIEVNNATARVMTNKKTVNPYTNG

B1: AUAGUAU (DNA:RNA)
RNA: GGGAGACCGGAAUUCAGAUUGUCCAUAGUAUUUAAAUCCCGUCGUAGCCACCA
DNA 1: CAATCTGAATTCCGGTCTCCC
DNA 2: TGGTGGCTACGACGGGATT
B2: UUCUUUG (DNA:RNA)
RNA: B1 RNA with A25U, A27C, G28U, A30U, U31G
DNA 1: CAATCTGAATTCCGGTCTCCC
DNA 2: TGGTGGCTACGACGGGATT
B3: AAGGCAA (DNA:RNA)
RNA: B1 RNA with U26A, A27G, U29C, U31A
DNA 1: CAATCTGAATTCCGGTCTCCC
DNA 2: TGGTGGCTACGACGGGATT
B4: UCAGGCU (DNA:RNA)
RNA: B1 RNA with A25U, U26C, U29G, A30C
DNA 1: CAATCTGAATTCCGGTCTCCC
DNA 2: TGGTGGCTACGACGGGATT
B5: AGAAGCU (DNA:RNA)
RNA: B1 RNA with U26G, G28A, U29G, A30C
DNA 1: CAATCTGAATTCCGGTCTCCC
DNA 2: TGGTGGCTACGACGGGATT
B6: UAUGCUU (DNA:RNA)
RNA: B1 RNA with A25U, U26A, A27U, U29C, A30U
DNA 1: CAATCTGAATTCCGGTCTCCC
DNA 2: TGGTGGCTACGACGGGATT
B7: CCAAACA (DNA:RNA)
RNA: B1 RNA with A25C, U26C, G28A, U29A, A30C, U31A
DNA 1: CAATCTGAATTCCGGTCTCCC
DNA 2: TGGTGGCTACGACGGGATT
B8: AGCACGU (DNA:RNA)
RNA: B1 RNA with U26G, A27C, G28A, U29C, A30G
DNA 1: CAATCTGAATTCCGGTCTCCC
DNA 2: TGGTGGCTACGACGGGATT
B9: AUCCGGA (DNA:RNA)
RNA: B1 RNA with A27C, G28C, U29G, A30G, U31A
DNA 1: CAATCTGAATTCCGGTCTCCC
DNA 2: TGGTGGCTACGACGGGATT
B10: UUUGACG (DNA:RNA)
RNA: B1 RNA with A25U, A27U, U29A, A30C, U31G
DNA 1: CAATCTGAATTCCGGTCTCCC
DNA 2: TGGTGGCTACGACGGGATT
B11: UGGAAUG (DNA:RNA)
RNA: GGGAGACCGGAAUUCAGAUUGUCCUGGAAUGUUAAAUCCCGUCGUAGCCACCA
DNA 1: CAATCTGAATTCCGGTCTCCC
DNA 2: TGGTGGCTACGACGGGATT
B12: CUCCGCA (DNA:RNA)
RNA: B1 RNA with A25C, A27C, G28C, U29G, A30C, U31A
DNA 1: CAATCTGAATTCCGGTCTCCC
DNA 2: TGGTGGCTACGACGGGATT
B13: CCUCCAU (DNA:RNA)
RNA: B1 RNA with A25C, U26C, A27U, G28C, U29C
DNA 1: CAATCTGAATTCCGGTCTCCC
DNA 2: TGGTGGCTACGACGGGATT
B14: CACAUGA (DNA:RNA)
RNA: B1 RNA with A25C, U26A, A27C, G28A, A30G, U31A
DNA 1: CAATCTGAATTCCGGTCTCCC
DNA 2: TGGTGGCTACGACGGGATT
B15: UCACUCG (DNA:RNA)
RNA: B1 RNA with A25U, U26C, G28C, A30C, U31G
DNA 1: CAATCTGAATTCCGGTCTCCC
DNA 2: TGGTGGCTACGACGGGATT
B16: UCGUUAU (DNA:RNA)
RNA: B1 RNA with A25U, U26C, A27G, G28U
DNA 1: CAATCTGAATTCCGGTCTCCC
DNA 2: TGGTGGCTACGACGGGATT
B17: AUGCUAC (DNA:RNA)
RNA: B1 RNA with A27G, G28C, U31C
DNA 1: CAATCTGAATTCCGGTCTCCC
DNA 2: TGGTGGCTACGACGGGATT
B18: UGUGUGA (DNA:RNA)
RNA: B1 RNA with A25U, U26G, A27U, A30G, U31A
DNA 1: CAATCTGAATTCCGGTCTCCC
DNA 2: TGGTGGCTACGACGGGATT
B19: AGUGCAG (DNA:RNA)
RNA: B1 RNA with U26G, A27U, U29C, U31G
DNA 1: CAATCTGAATTCCGGTCTCCC
DNA 2: TGGTGGCTACGACGGGATT
B20: AGGAUGU (DNA:RNA)
RNA: B1 RNA with U26G, A27G, G28A, A30G
DNA 1: CAATCTGAATTCCGGTCTCCC
DNA 2: TGGTGGCTACGACGGGATT
B21: AACGCGU (DNA:RNA)
RNA: B1 RNA with U26A, A27C, U29C, A30G
DNA 1: CAATCTGAATTCCGGTCTCCC
DNA 2: TGGTGGCTACGACGGGATT
B22: GACCAAC (DNA:RNA)
RNA: B1 RNA with A25G, U26A, A27C, G28C, U29A, U31C
DNA 1: CAATCTGAATTCCGGTCTCCC
DNA 2: TGGTGGCTACGACGGGATT
B23: GCGGCCA (DNA:RNA)
RNA: B1 RNA with A25G, U26C, A27G, U29C, A30C, U31A
DNA 1: CAATCTGAATTCCGGTCTCCC
DNA 2: TGGTGGCTACGACGGGATT
B24: UGGGGAU (DNA:RNA)
RNA: B1 RNA with A25U, U26G, A27G, U29G
DNA 1: CAATCTGAATTCCGGTCTCCC
DNA 2: TGGTGGCTACGACGGGATT
B25: ACUCCAA (DNA:RNA)
RNA: B1 RNA with U26C, A27U, G28C, U29C, U31A
DNA 1: CAATCTGAATTCCGGTCTCCC
DNA 2: TGGTGGCTACGACGGGATT
B26: CCUCAUA (DNA:RNA)
RNA: B11 RNA with U25C, G26C, G27U, A28C, G31A
DNA 1: CAATCTGAATTCCGGTCTCCC
DNA 2: TGGTGGCTACGACGGGATT
B27: CCCUCGG (DNA:RNA)
RNA: B11 RNA with U25C, G26C, G27C, A28U, A29C, U30G
DNA 1: CAATCTGAATTCCGGTCTCCC
DNA 2: TGGTGGCTACGACGGGATT
B28: UGCUGGU (DNA:RNA)
RNA: B11 RNA with G27C, A28U, A29G, U30G, G31U
DNA 1: CAATCTGAATTCCGGTCTCCC
DNA 2: TGGTGGCTACGACGGGATT
B29: UUACAUA (DNA:RNA)
RNA: B11 RNA with G26U, G27A, A28C, G31A
DNA 1: CAATCTGAATTCCGGTCTCCC
DNA 2: TGGTGGCTACGACGGGATT
B30: GCAACGU (DNA:RNA)
RNA: B1 RNA with A25G, U26C, G28A, U29C, A30G
DNA 1: CAATCTGAATTCCGGTCTCCC
DNA 2: TGGTGGCTACGACGGGATT
B31: CAGCGCA (DNA:RNA)
RNA: B11 RNA with U25C, G26A, A28C, A29G, U30C, G31A
DNA 1: CAATCTGAATTCCGGTCTCCC
DNA 2: TGGTGGCTACGACGGGATT

Target: T1, RBFOX1 RRM RbFoxmut (Fox-RRM*)
Experiment: EMSA; HiTS-Eq, 1 nM pool, 10 min; buffer printed only for the single-RNA assays: 10 mM Tris pH 7.5, 150 mM NaCl, 3.4 mM EDTA, 0.001% NP-40, 30 C
Settings: tags: His6 N-terminal (pET28a); label: 5' 32P
In short: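 Purified RbFox RRM (wild type or mutant) was equilibrated for 10 min in 50 µL with 1 nM of a 5′-radiolabelled pool of RNA with 7 randomized nucleotides, its flanks annealed to DNA oligonucleotides, across increasing protein concentrations. Free RNA was separated by 8% native PAGE, excised, reverse-transcribed, PCR-barcoded and sequenced on an Illumina HiSeq 2500. Relative association constants came from read-count changes of each variant against the control reaction, normalised to the cognate motif.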

Row | Binder | binding signal
1 | B1 | 0.169 KA relative to UGCAUGU
2 | B2 | 0.128 KA relative to UGCAUGU
3 | B3 | 0.061 KA relative to UGCAUGU
4 | B4 | 0.127 KA relative to UGCAUGU
5 | B5 | 0.104 KA relative to UGCAUGU
6 | B6 | 0.0987 KA relative to UGCAUGU
7 | B7 | 0.0719 KA relative to UGCAUGU
8 | B8 | 0.154 KA relative to UGCAUGU
9 | B9 | 0.0548 KA relative to UGCAUGU
10 | B10 | 0.0801 KA relative to UGCAUGU
11 | B11 | 1.66 KA relative to UGCAUGU
12 | B12 | 0.11 KA relative to UGCAUGU
13 | B13 | 0.0807 KA relative to UGCAUGU
14 | B14 | 0.106 KA relative to UGCAUGU
15 | B15 | 0.0902 KA relative to UGCAUGU
16 | B16 | 0.11 KA relative to UGCAUGU

Row | Binder | binding signal
17 | B17 | 0.134 KA relative to UGCAUGU
18 | B18 | 0.209 KA relative to UGCAUGU
19 | B19 | 0.0945 KA relative to UGCAUGU
20 | B20 | 0.339 KA relative to UGCAUGU
21 | B21 | 0.097 KA relative to UGCAUGU
22 | B22 | 0.0685 KA relative to UGCAUGU
23 | B23 | 0.0962 KA relative to UGCAUGU
24 | B24 | 0.135 KA relative to UGCAUGU
25 | B25 | 0.0915 KA relative to UGCAUGU
26 | B26 | 0.116 KA relative to UGCAUGU
27 | B27 | 0.0672 KA relative to UGCAUGU
28 | B28 | 0.133 KA relative to UGCAUGU
29 | B29 | 0.0834 KA relative to UGCAUGU
30 | B30 | 0.094 KA relative to UGCAUGU
31 | B31 | 0.143 KA relative to UGCAUGU
